Measured values reported in the antibiotic and cytotoxicity screens of Wong et al. (2023).
The list shows a part of the results.

How the values were obtained:
HSkMC = human skeletal muscle cells; assay: cytotoxicity call (relative viability < 0.9); details: 10 µM
HepG2 = assay: cytotoxicity call (relative viability < 0.9); details: 10 µM
S. aureus RN4220 = assay: growth inhibition call (relative growth <= 0.2); details: 50 µM

Nc1ccn([C@@H]2O[C@H](CO)[C@@H](O)[C@H]2O)c(=S)n1
inactive: cytotoxicity call (HSkMC) | cytotoxicity call (HepG2) | growth inhibition call (S. aureus RN4220)

CC(C)NC(=O)Nc1ccc2c(c1)C(=O)N([C@H](C)CO)C[C@@H](C)[C@H](CN(C)S(C)(=O)=O)OCCCC[C@H](C)O2
inactive: cytotoxicity call (HSkMC) | cytotoxicity call (HepG2) | growth inhibition call (S. aureus RN4220)

Cc1noc(C)c1S(=O)(=O)Nc1ccc2c(c1)C(=O)N([C@@H](C)CO)C[C@H](C)[C@@H](CN(C)Cc1ccc(C(=O)O)cc1)O2
inactive: cytotoxicity call (HSkMC) | cytotoxicity call (HepG2) | growth inhibition call (S. aureus RN4220)

C[C@@H]1CCCCO[C@H](CN(C)C(=O)c2ccccc2)[C@@H](C)CN([C@H](C)CO)C(=O)c2cc(NC(=O)Nc3cccc4ccccc34)ccc2O1
inactive: cytotoxicity call (HSkMC) | cytotoxicity call (HepG2) | growth inhibition call (S. aureus RN4220)

COc1ccc(S(=O)(=O)N[C@@H]2CC[C@H](CC(=O)N3CCC(Cc4ccccc4)CC3)O[C@H]2CO)cc1
inactive: cytotoxicity call (HSkMC) | cytotoxicity call (HepG2) | growth inhibition call (S. aureus RN4220)

O=C(C[C@H]1CC[C@@H]2[C@H](COC[C@H](O)CN2C(=O)c2cccnc2)O1)NCc1ccc(-c2ccccc2)cc1
inactive: cytotoxicity call (HSkMC) | cytotoxicity call (HepG2) | growth inhibition call (S. aureus RN4220)

C[C@@H]1CN([C@H](C)CO)C(=O)c2c(c3ccccc3n2C)-c2ccccc2CO[C@@H]1CN(C)C(=O)Nc1ccccc1C(F)(F)F
inactive: cytotoxicity call (HSkMC) | cytotoxicity call (HepG2) | growth inhibition call (S. aureus RN4220)

CC(C)(O)c1cn(-c2nonc2N)nn1
inactive: cytotoxicity call (HSkMC) | cytotoxicity call (HepG2) | growth inhibition call (S. aureus RN4220)

O=C1COc2cccnc2N1
inactive: cytotoxicity call (HSkMC) | cytotoxicity call (HepG2) | growth inhibition call (S. aureus RN4220)

O=C(CCN1CCNCC1)N1CCCCC1
inactive: cytotoxicity call (HSkMC) | cytotoxicity call (HepG2) | growth inhibition call (S. aureus RN4220)

NC1=NNC(=O)C1
inactive: cytotoxicity call (HSkMC) | cytotoxicity call (HepG2) | growth inhibition call (S. aureus RN4220)
